Experimental data from paper PMC10147690, “Human TRPV1 structure and inhibition by the analgesic SB-366791” (Nature Communications, 2023).
Several values for one entry are separate records, joined by “and”; a condition that tells them apart may be missing. Equal entries are not always repeated. This continues a long series; more values of the same kind are listed elsewhere.

Tests used:
Assay type in all cases: cell-based
hTRPV1 L547R = molecular target: T1, hTRPV1 L547R (Homo sapiens, UniProt Q8NER1, L547R); assay: whole-cell patch-clamp, SB-366791 inhibition of pH 5-induced current, L547R; settings: +80 mV, individual cells
T1 construct: we used the same wild-type full-length construct to determine the hTRPV1 structure; expressed in transfected cells; host or cells: HEK293T ΔPIEZO1 cells, pIRES-EGFP plasmid

hTRPV1 T550A = molecular target: T2, hTRPV1 T550A (Homo sapiens, UniProt Q8NER1, T550A); assay: whole-cell patch-clamp, SB-366791 inhibition of pH 5-induced current, T550A; settings: +80 mV, individual cells
T2 construct: we used the same wild-type full-length construct to determine the hTRPV1 structure; expressed in transfected cells; host or cells: HEK293T ΔPIEZO1 cells, pIRES-EGFP plasmid

hTRPV1 E693A = molecular target: T3, hTRPV1 E693A (Homo sapiens, UniProt Q8NER1, E693A); assay: whole-cell patch-clamp, SB-366791 inhibition of pH 5-induced current, E693A; settings: +80 mV, individual cells
T3 construct: we used the same wild-type full-length construct to determine the hTRPV1 structure; expressed in transfected cells; host or cells: HEK293T ΔPIEZO1 cells, pIRES-EGFP plasmid

hTRPV1 = hTRPV1 (Homo sapiens, UniProt Q8NER1); assay: whole-cell patch-clamp, SB-366791 inhibition of pH 5-induced current, wild-type hTRPV1; parameters: we used the same wild-type full-length construct to determine the hTRPV1 structure; expressed in transfected cells; host or cells: HEK293T ΔPIEZO1 cells, pIRES-EGFP plasmid; settings: WT, +80 mV, individual cells

SMILES: COc1cccc(NC(=O)/C=C/c2ccc(Cl)cc2)c1 [SB-366791, N-(3-methoxyphenyl)−4-chlorocinnamide]
- I / Imax (hTRPV1 L547R; SB-366791 0.0001 μM): 0.942 and 0.938 and 1.017 and 0.994 and 1.040 and 1.092 and 0.961
- I / Imax (hTRPV1 L547R; SB-366791 0.001 μM): 0.930 and 0.917 and 1.020 and 0.916 and 1.013 and 1.109 and 0.999
- I / Imax (hTRPV1 L547R; SB-366791 0.01 μM): 0.896 and 0.893 and 0.995 and 0.873 and 0.949 and 1.089 and 0.976
- I / Imax (hTRPV1 L547R; SB-366791 0.1 μM): 0.883 and 0.857 and 0.993 and 0.853 and 0.864 and 1.090 and 0.927
- I / Imax (hTRPV1 L547R; SB-366791 1 μM): 0.799 and 0.757 and 0.997 and 0.787 and 0.854 and 1.085 and 0.939
- I / Imax (hTRPV1 L547R; SB-366791 10 μM): 0.765 and 0.688 and 0.893 and 0.707 and 0.737 and 1.033 and 0.934
- I / Imax (hTRPV1 T550A; SB-366791 0.0001 μM): 0.984 and 0.939 and 0.992 and 0.982 and 1.002 and 1.072 and 1.014
- I / Imax (hTRPV1 T550A; SB-366791 0.001 μM): 0.919 and 0.880 and 0.935 and 0.944 and 0.997 and 1.058 and 0.938
- I / Imax (hTRPV1 T550A; SB-366791 0.01 μM): 0.869 and 0.838 and 0.873 and 0.887 and 0.955 and 0.992 and 0.860
- I / Imax (hTRPV1 T550A; SB-366791 0.1 μM): 0.869 and 0.860 and 0.820 and 0.865 and 0.954 and 0.957 and 0.846
- I / Imax (hTRPV1 T550A; SB-366791 1 μM): 0.801 and 0.714 and 0.685 and 0.803 and 0.854 and 0.896 and 0.816
- I / Imax (hTRPV1 T550A; SB-366791 10 μM): 0.777 and 0.753 and 0.646 and 0.744 and 0.842 and 0.836 and 0.745
- I / Imax (hTRPV1 E693A; SB-366791 0.1 μM): 0.760 and 0.580 and 0.690 (2×) and 0.640 and 0.590
- I / Imax (hTRPV1 E693A; SB-366791 1 μM): 0.600 and 0.470 and 0.510 and 0.420 and 0.450 and 0.390
- I / Imax (hTRPV1 E693A; SB-366791 10 μM): 0.610 and 0.390 and 0.450 and 0.420 (2×) and 0.370
- I / Imax (hTRPV1; SB-366791 0.0001 μM, normalized to pH5-induced current): 0.896 and 1.014 and 0.847 and 0.830 and 1.095 and 1.000 and 0.940
- I / Imax (hTRPV1; SB-366791 0.001 μM): 0.724 and 1.129 and 0.901 and 0.748 and 0.964 and 0.823 and 0.794
- I / Imax (hTRPV1; SB-366791 0.01 μM): 0.649 and 0.827 and 0.708 and 0.526 and 0.798 and 0.651 and 0.674
- I / Imax (hTRPV1; SB-366791 0.1 μM): 0.491 and 0.600 and 0.485 and 0.379 and 0.446 and 0.382 and 0.463
- I / Imax (hTRPV1; SB-366791 1 μM): 0.339 and 0.394 and 0.328 and 0.292 and 0.252 and 0.211 and 0.325
- I / Imax (hTRPV1; SB-366791 10 μM): 0.312 and 0.299 and 0.289 and 0.307 and 0.210 and 0.166 and 0.271
